# Experimental data taken from the supplement of paper PMC8728848.
# This is one part of the list.
# B1: FimA-N1 (Actinomyces oris) (protein)
# chain: MHHHHHHSSGVDLGTENLYFQSNATETPNYGNIKTDATGSLVIHKHLTGGGKDIGTPTGTAQNADDKGPAVEGVVFTAYPITDINLKDPAGWDTISNLSRTGVPDSACANPAAPTLGAHQFGTPKVSPATTKEGLATITEMPVQAYLVCETTTPGDIVQKAKPFVVTIPHPNTAAGADGQWIYDVNVYPKNEAIDVDKTIQAQK
# Experiments:
# Experiment in all cases: glycan array binding signal (z-score within array); higher = stronger binding
# Conditions in all cases: glycan notation: IUPAC condensed, linker removed
# [1] = target: Neu5Ac(a2-3)Gal(b1-4)GlcNAc(b1-6)GalNAc
# Summary of the method: (§1)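 The binding signal is a Z-score computed within each array. Data were drawn from 3228 arrays in the Consortium for Functional Glycomics database, restricted to those with a known protein sequence. Scores were averaged over arrays of the same protein sequence at different concentrations or buffers, and over linkers, and negative values can be taken as non-binding.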
# [2] = target: Neu5Ac(a2-3)Gal(b1-4)GlcNAc(b1-6)[Gal(b1-3)]GalNAc
# Summary of the method: as §1
# [3] = target: Neu5Ac(a2-3)Gal(b1-4)GlcNAc(b1-6)[Neu5Ac(a2-3)Gal(b1-3)]GalNAc
# Summary of the method: as §1
# [4] = target: Neu5Ac(a2-3)Gal(b1-4)GlcNAc6S
# Summary of the method: as §1
# [5] = target: Neu5Ac(a2-3)Gal(b1-4)[Fuc(a1-3)]GlcNAc
# Summary of the method: as §1
# [6] = target: Neu5Ac(a2-3)Gal(b1-4)[Fuc(a1-3)]GlcNAc(b1-2)Man
# Summary of the method: as §1
# [7] = target: Neu5Ac(a2-3)Gal(b1-4)[Fuc(a1-3)]GlcNAc(b1-3)Gal
# Summary of the method: as §1
# [8] = target: Neu5Ac(a2-3)Gal(b1-4)[Fuc(a1-3)]GlcNAc(b1-3)Gal(b1-4)GlcNAc
# Summary of the method: as §1
# [9] = target: Neu5Ac(a2-3)Gal(b1-4)[Fuc(a1-3)]GlcNAc(b1-3)Gal(b1-4)[Fuc(a1-3)]GlcNAc(b1-3)Gal(b1-4)[Fuc(a1-3)]GlcNAc
# Summary of the method: as §1
# [10] = target: Neu5Ac(a2-3)Gal(b1-4)[Fuc(a1-3)]GlcNAc(b1-3)GalNAc
# Summary of the method: as §1
# [11] = target: Neu5Ac(a2-3)Gal(b1-4)[Fuc(a1-3)]GlcNAc(b1-6)[Gal(b1-3)]GalNAc
# Summary of the method: as §1
# [12] = target: Neu5Ac(a2-3)Gal(b1-4)[Fuc(a1-3)]GlcNAc(b1-6)[Neu5Ac(a2-3)Gal(b1-3)]GalNAc
# Summary of the method: as §1
# [13] = target: Neu5Ac(a2-3)Gal(b1-4)[Fuc(a1-3)]GlcNAc6S
# Summary of the method: as §1
# [14] = target: Neu5Ac(a2-3)Gal6S(b1-4)GlcNAc
# Summary of the method: as §1
# [15] = target: Neu5Ac(a2-3)Gal6S(b1-4)[Fuc(a1-3)]GlcNAc
# Summary of the method: as §1
# [16] = target: Neu5Ac(a2-3)GalNAc
# Summary of the method: as §1
# [17] = target: Neu5Ac(a2-3)GalNAc(b1-4)GlcNAc
# Summary of the method: as §1
# [18] = target: Neu5Ac(a2-3)[GalNAc(b1-4)]Gal(b1-4)Glc
# Summary of the method: as §1
# [19] = target: Neu5Ac(a2-3)[GalNAc(b1-4)]Gal(b1-4)GlcNAc
# Summary of the method: as §1
# [20] = target: Neu5Ac(a2-3)[GalNAc(b1-4)]Gal(b1-4)GlcNAc(b1-3)GalNAc
# Summary of the method: as §1
# [21] = target: Neu5Ac(a2-3)[Neu5Ac(a2-6)]GalNAc
# Summary of the method: as §1
# [22] = target: Neu5Ac(a2-6)Gal
# Summary of the method: as §1
# [23] = target: Neu5Ac(a2-6)Gal(b1-3)GlcNAc(b1-3)[Gal(b1-4)GlcNAc(b1-6)]Gal(b1-4)Glc
# Summary of the method: as §1
# [24] = target: Neu5Ac(a2-6)Gal(b1-4)Glc
# Summary of the method: as §1
# [25] = target: Neu5Ac(a2-6)Gal(b1-4)GlcNAc
# Summary of the method: as §1
# [26] = target: Neu5Ac(a2-6)Gal(b1-4)GlcNAc(b1-2)Man
# Summary of the method: as §1
# [27] = target: Neu5Ac(a2-6)Gal(b1-4)GlcNAc(b1-2)Man(a1-3)Man(b1-4)GlcNAc(b1-4)GlcNAc
# Summary of the method: as §1
# [28] = target: Neu5Ac(a2-6)Gal(b1-4)GlcNAc(b1-2)Man(a1-3)[Gal(b1-4)GlcNAc(b1-2)Man(a1-6)]Man(b1-4)GlcNAc(b1-4)GlcNAc
# Summary of the method: as §1
# [29] = target: Neu5Ac(a2-6)Gal(b1-4)GlcNAc(b1-2)Man(a1-3)[GlcNAc(b1-2)Man(a1-6)]Man(b1-4)GlcNAc(b1-4)GlcNAc
# Summary of the method: as §1
# [30] = target: Neu5Ac(a2-6)Gal(b1-4)GlcNAc(b1-2)Man(a1-3)[GlcNAc(b1-4)][Neu5Ac(a2-6)Gal(b1-4)GlcNAc(b1-2)Man(a1-6)]Man(b1-4)GlcNAc(b1-4)GlcNAc
# Summary of the method: as §1
# [31] = target: Neu5Ac(a2-6)Gal(b1-4)GlcNAc(b1-2)Man(a1-3)[Man(a1-6)]Man(b1-4)GlcNAc(b1-4)GlcNAc
# Summary of the method: as §1
# [32] = target: Neu5Ac(a2-6)Gal(b1-4)GlcNAc(b1-2)Man(a1-3)[Neu5Ac(a2-3)Gal(b1-4)GlcNAc(b1-2)Man(a1-6)]Man(b1-4)GlcNAc(b1-4)GlcNAc
# Summary of the method: as §1
# [33] = target: Neu5Ac(a2-6)Gal(b1-4)GlcNAc(b1-2)Man(a1-3)[Neu5Ac(a2-6)Gal(b1-4)GlcNAc(b1-2)Man(a1-6)]Man(b1-4)GlcNAc(b1-4)GlcNAc
# Summary of the method: as §1
# [34] = target: Neu5Ac(a2-6)Gal(b1-4)GlcNAc(b1-2)Man(a1-3)[Neu5Ac(a2-6)Gal(b1-4)GlcNAc(b1-2)Man(a1-6)]Man(b1-4)GlcNAc(b1-4)[Fuc(a1-6)]GlcNAc
# Summary of the method: as §1
# [35] = target: Neu5Ac(a2-6)Gal(b1-4)GlcNAc(b1-2)Man(a1-6)Man(b1-4)GlcNAc(b1-4)GlcNAc
# Summary of the method: as §1
# [36] = target: Neu5Ac(a2-6)Gal(b1-4)GlcNAc(b1-2)Man(a1-6)[Gal(b1-4)GlcNAc(b1-2)Man(a1-3)]Man(b1-4)GlcNAc(b1-4)GlcNAc
# Summary of the method: as §1
# [37] = target: Neu5Ac(a2-6)Gal(b1-4)GlcNAc(b1-2)Man(a1-6)[GlcNAc(b1-2)Man(a1-3)]Man(b1-4)GlcNAc(b1-4)GlcNAc
# Summary of the method: as §1
# [38] = target: Neu5Ac(a2-6)Gal(b1-4)GlcNAc(b1-2)Man(a1-6)[Man(a1-3)]Man(b1-4)GlcNAc(b1-4)GlcNAc
# Summary of the method: as §1
# [39] = target: Neu5Ac(a2-6)Gal(b1-4)GlcNAc(b1-2)[Neu5Ac(a2-6)Gal(b1-4)GlcNAc(b1-4)]Man(a1-3)[GlcNAc(b1-4)][Neu5Ac(a2-6)Gal(b1-4)GlcNAc(b1-2)[Neu5Ac(a2-6)Gal(b1-4)GlcNAc(b1-6)]Man(a1-6)]Man(b1-4)GlcNAc(b1-4)GlcNAc
# Summary of the method: as §1
# [40] = target: Neu5Ac(a2-6)Gal(b1-4)GlcNAc(b1-2)[Neu5Ac(a2-6)Gal(b1-4)GlcNAc(b1-4)]Man(a1-3)[GlcNAc(b1-4)][Neu5Ac(a2-6)Gal(b1-4)GlcNAc(b1-4)Man(a1-6)]Man(b1-4)GlcNAc(b1-4)GlcNAc
# Summary of the method: as §1
# [41] = target: Neu5Ac(a2-6)Gal(b1-4)GlcNAc(b1-2)[Neu5Ac(a2-6)Gal(b1-4)GlcNAc(b1-6)]Man(a1-6)[Neu5Ac(a2-6)Gal(b1-4)GlcNAc(b1-2)Man(a1-3)][GlcNAc(b1-4)]Man(b1-4)GlcNAc(b1-4)GlcNAc
# Summary of the method: as §1
# [42] = target: Neu5Ac(a2-6)Gal(b1-4)GlcNAc(b1-3)Gal(b1-3)GlcNAc
# Summary of the method: as §1
# [43] = target: Neu5Ac(a2-6)Gal(b1-4)GlcNAc(b1-3)Gal(b1-4)GlcNAc
# Summary of the method: as §1
# [44] = target: Neu5Ac(a2-6)Gal(b1-4)GlcNAc(b1-3)Gal(b1-4)GlcNAc(b1-2)Man(a1-3)[Neu5Ac(a2-6)Gal(b1-4)GlcNAc(b1-3)Gal(b1-4)GlcNAc(b1-2)Man(a1-6)]GalNAc
# Summary of the method: as §1
# [45] = target: Neu5Ac(a2-6)Gal(b1-4)GlcNAc(b1-3)Gal(b1-4)GlcNAc(b1-3)Gal(b1-4)GlcNAc
# Summary of the method: as §1
binder,measurement,setting,value
B1,glycan array binding signal (z-score),[1],-0.039
same,glycan array binding signal (z-score),[2],-0.173
same,glycan array binding signal (z-score),[3],-0.184
same,glycan array binding signal (z-score),[4],-0.095
same,glycan array binding signal (z-score),[5],-0.353
same,glycan array binding signal (z-score),[6],-0.08
same,glycan array binding signal (z-score),[7],-0.315
same,glycan array binding signal (z-score),[8],0.242
same,glycan array binding signal (z-score),[9],-0.108
same,glycan array binding signal (z-score),[10],0.263
same,glycan array binding signal (z-score),[11],0.446
same,glycan array binding signal (z-score),[12],0.271
same,glycan array binding signal (z-score),[13],-0.08
same,glycan array binding signal (z-score),[14],-0.453
same,glycan array binding signal (z-score),[15],-0.34
same,glycan array binding signal (z-score),[16],-0.393
same,glycan array binding signal (z-score),[17],-0.114
same,glycan array binding signal (z-score),[18],-0.218
same,glycan array binding signal (z-score),[19],-0.295
same,glycan array binding signal (z-score),[20],-0.399
same,glycan array binding signal (z-score),[21],0.565
same,glycan array binding signal (z-score),[22],-0.469
same,glycan array binding signal (z-score),[23],-0.454
same,glycan array binding signal (z-score),[24],-0.022
same,glycan array binding signal (z-score),[25],-0.052
same,glycan array binding signal (z-score),[26],-0.484
same,glycan array binding signal (z-score),[27],-0.135
same,glycan array binding signal (z-score),[28],6.46
same,glycan array binding signal (z-score),[29],-0.461
same,glycan array binding signal (z-score),[30],-0.234
same,glycan array binding signal (z-score),[31],-0.43
same,glycan array binding signal (z-score),[32],-0.034
same,glycan array binding signal (z-score),[33],0.01
same,glycan array binding signal (z-score),[34],-0.319
same,glycan array binding signal (z-score),[35],-0.347
same,glycan array binding signal (z-score),[36],-0.197
same,glycan array binding signal (z-score),[37],-0.35
same,glycan array binding signal (z-score),[38],0.056
same,glycan array binding signal (z-score),[39],0.07
same,glycan array binding signal (z-score),[40],-0.287
same,glycan array binding signal (z-score),[41],-0.365
same,glycan array binding signal (z-score),[42],-0.02
same,glycan array binding signal (z-score),[43],-0.303
same,glycan array binding signal (z-score),[44],-0.39
same,glycan array binding signal (z-score),[45],-0.267
